Like-named read-outs stand apart in the source and are kept apart here. Part of at least one peptide drawing is inferred or uncertain, most often the ends. Where a SMILES comes first, the peptide text is derived from it. The star is where a group is joined. Belotecan = CC[C@@]1(O)C(=O)OCc2c1cc1n(c2=O)Cc2c-1nc1ccccc1c2CCN(C(C)C)*; X8 = CC[C@@]1(O)C(=O)OCc2c1cc1n(c2=O)Cc2c-1nc1ccccc1c2CCN(C1CCCC1)*; X1 = CC[C@@]1(O)C(=O)OCc2c1cc1n(c2=O)Cc2c-1nc1ccccc1c2CCN(C1CCC1)*; X3 = CC[C@@]1(O)C(=O)OCc2c1cc1n(c2=O)Cc2c-1nc1ccccc1c2CCN(C1CC1)*; X7 = CC[C@@]1(O)C(=O)OCc2c1cc1n(c2=O)Cc2c-1nc1ccccc1c2CCN(C)*; Propanoyl(3-maleimido) = O=C1C=CC(=O)N1CCC(=O)*; PEG6 = NCCOCCOCCOCCOCCOCCOCCC(=O)O
Key:
[1] = system: sarcoma SJSA-1 tumor model
Procedure: Test objective: To investigate the antitumor efficacy of the above compounds in an animal tumor model of sarcoma SJSA-1.
(§1) Test drug: Polypeptide conjugate, Irinotecan, Belotecan and normal saline control group.
(§2) Test animals: 6-8 weeks old BALB/c mice, all female.
(§3) SJSA-1 cells were purchased from ATCC and cultured in a DMEM medium containing 10% fetal bovine serum at 37° C. in 5% CO2. Passaging was performed every three days, and cells within 15 generations were used. 2×10^7 corresponding cells were injected into right chests of nude mice subcutaneously. After a volume of the tumors reached at least 100 mm^3, the mice were grouped randomly, with three mice in each group. Then treatment was started, and the day when the treatment was started was the first day. […] The control group was administered with normal saline. Administration was performed once a week for three weeks.
as §3

[2] = system: colo320 colorectal cancer tumor model
Procedure: Test objective: To investigate the antitumor efficacy of the above compounds in an animal tumor model of colo320 colorectal cancer.
as §1, §2
as §3, with “Passaging” for “SJSA-1 cells were purchased from ATCC and cultured in a DMEM medium containing 10% fetal bovine serum at 37° C. in 5% CO2. Passaging”, “used. 7.5×10^6” for “used. 2×10^7”, “least 120” for “least 100”, “for four” for “for three”

[3] = system: sarcoma SJSA-1 tumor model; experiment: Efficacy in animal model of sarcoma SJSA-1, 30 mg/kg once a week for two weeks (Example 40); format: in vivo, BALB/c mice
Procedure: Test objective: To further compare the antitumor efficacy of different polypeptide Linkers in an animal tumor model of sarcoma SJSA-1.
(§4) Test drug: Polypeptide conjugate and normal saline control group.
The control group was administered normal saline. Administration was performed once a week for two weeks.

[4] = system: A2780 ovarian cancer tumor model; experiment: Efficacy in animal model of A2780 ovarian cancer, 30 mg/kg once a week for two weeks (Example 41); format: in vivo, BALB/c mice
Procedure: Test objective: To further compare the antitumor efficacy of different polypeptide Linkers in an animal tumor model of A2780 ovarian cancer.
as §4
8×10^6 corresponding cells were injected into right axillas of nude mice subcutaneously. […] The negative control group was administered normal saline. Administration was performed once a week for two weeks.

[5] = 15 mg/kg once a week for three weeks, Table 2
[6] = 45 mg/kg once a week for three weeks, Table 2
[7] = 15 mg/kg once a week for four weeks, Table 3
[8] = 45 mg/kg once a week for four weeks, Table 3
[9] = Table 14 (Example 43), dose 45 mg/kg, once a week for four weeks, BALB/c mice
[10] = 15 mg/kg once a week for three weeks, Table 7
[11] = 45 mg/kg once a week for three weeks, Table 7
[12] = 15 mg/kg once a week for four weeks, Table 8
[13] = 45 mg/kg once a week for four weeks, Table 8

| Compound | SJSA-1 (sarcoma tissue) mean tumor volume (mm^3) [1, 5] [mm^3] | SJSA-1 (sarcoma) Growth rate (%) [1, 5] [%] | SJSA-1 (sarcoma tissue) mean tumor volume (mm^3) [1, 6] [mm^3] | SJSA-1 (sarcoma) Growth rate (%) [1, 6] [%] | colo320 (colorectal cancer cell) growth rate (%) [2, 7] [%] | colo320 (colorectal cancer cell) mean tumor volume (mm^3) [2, 7] [mm^3] | colo320 (colorectal cancer cell) growth rate (%) [2, 8] [%] | colo320 (colorectal cancer cell) mean tumor volume (mm^3) [2, 8] [mm^3] | colo320 (colorectal cancer cell) growth rate (%) [2, 9] [%] | colo320 (colorectal cancer cell) mean tumor volume (mm^3) [2, 9] [mm^3] | SJSA-1 (sarcoma tissue) mean tumor volume (mm^3) Day 1 [3] [mm^3] | SJSA-1 (sarcoma tissue) mean tumor volume (mm^3) Day 4 [3] [mm^3] | SJSA-1 (sarcoma tissue) mean tumor volume (mm^3) Day 7 [3] [mm^3] | SJSA-1 (sarcoma tissue) mean tumor volume (mm^3) Day 10 [3] [mm^3] | SJSA-1 (sarcoma tissue) growth rate (%) on Day 14 [3] [%] | SJSA-1 (sarcoma tissue) mean tumor volume (mm^3) Day 14 [3] [mm^3] | SJSA-1 (sarcoma tissue) growth rate (%) [1, 11] [%] | SJSA-1 (sarcoma tissue) mean tumor volume (mm^3) [1, 11] [mm^3] | colo320 (colorectal cancer cell) growth rate (%) [2, 13] [%] | colo320 (colorectal cancer cell) mean tumor volume (mm^3) [2, 13] [mm^3] | further results |
| --- | --- | --- | --- | --- | --- | --- | --- | --- | --- | --- | --- | --- | --- | --- | --- | --- | --- | --- | --- | --- | --- |
| CC[C@@]1(O)C(=O)OCc2c1cc1n(c2=O)Cc2c-1nc1ccccc1c2CCN(C(=O)CNC(=O)[C@H](CC(N)=O)NC(=O)[C@H](C)NC(=O)[C@H](C)NC(=O)CCOCCOCCOCCOCCOCCOCCNC(=O)CCN1C(=O)C=CC1=O)C1CC1 [MI-6PEG-AANG-D6] ({Propanoyl(3-maleimido)-PEG6}-AANG-X3) | 781.1 | 673.28 | 535 | 461.21 | 700.76 | 826.9 | 255.88 | 283.4 | 255.88 | 283.4 | 179.32 | 245.10 | 415.17 | 487.62 | 349.47 | 626.67 |  |  |  |  | A2780 (ovarian cancer) mean tumor volume (mm^3) Day 1 [4]: 133.65 mm^3; A2780 (ovarian cancer) mean tumor volume (mm^3) Day 4 [4]: 179.74 mm^3; A2780 (ovarian cancer) mean tumor volume (mm^3) Day 7 [4]: 231.50 mm^3; A2780 (ovarian cancer) mean tumor volume (mm^3) Day 10 [4]: 356.48 mm^3; A2780 (ovarian cancer) mean tumor volume (mm^3) Day 14 [4]: 521.34 mm^3; Growth rate (%) of A2780 (ovarian cancer) on Day 14 [4]: 390.08% |
| CC[C@@]1(O)C(=O)OCc2c1cc1n(c2=O)Cc2c-1nc1ccccc1c2CCN(C(=O)CNC(=O)[C@H](CC(N)=O)NC(=O)[C@H](C)NC(=O)[C@H](C)NC(=O)CCOCCOCCOCCOCCOCCOCCNC(=O)CCN1C(=O)C=CC1=O)C1CCC1 [MI-6PEG-AANG-D7] ({Propanoyl(3-maleimido)-PEG6}-AANG-X1) | 915.3 | 751.85 | 878.2 | 757.07 | 818.72 | 957.9 | 418.66 | 463.7 | 418.66 | 463.7 | 176.15 | 268.54 | 455.37 | 498.05 | 394.36 | 694.67 |  |  |  |  | A2780 (ovarian cancer) mean tumor volume (mm^3) Day 1 [4]: 138.52 mm^3; A2780 (ovarian cancer) mean tumor volume (mm^3) Day 4 [4]: 228.26 mm^3; A2780 (ovarian cancer) mean tumor volume (mm^3) Day 7 [4]: 362.93 mm^3; A2780 (ovarian cancer) mean tumor volume (mm^3) Day 10 [4]: 566.23 mm^3; A2780 (ovarian cancer) mean tumor volume (mm^3) Day 14 [4]: 678.75 mm^3; Growth rate (%) of A2780 (ovarian cancer) on Day 14 [4]: 490.00% |
| CC[C@@]1(O)C(=O)OCc2c1cc1n(c2=O)Cc2c-1nc1ccccc1c2CCN(C(=O)CNC(=O)[C@H](CC(N)=O)NC(=O)[C@H](C)NC(=O)[C@H](C)NC(=O)CCOCCOCCOCCOCCOCCOCCNC(=O)CCN1C(=O)C=CC1=O)C1CCCC1 [MI-6PEG-AANG-D8] ({Propanoyl(3-maleimido)-PEG6}-AANG-X8) | 1210.4 | 1043.10 |  |  |  |  | 578.65 | 640.9 |  |  |  |  |  |  |  |  |  |  |  |  |  |
| CC[C@@]1(O)C(=O)OCc2c1cc1n(c2=O)Cc2c-1nc1ccccc1c2CCN(C(=O)[C@H](CC(C)C)NC(=O)[C@H](CC(N)=O)NC(=O)[C@H](C)NC(=O)[C@H](C)NC(=O)CCOCCOCCOCCOCCOCCOCCNC(=O)CCN1C(=O)C=CC1=O)C(C)C [MI-6PEG-AANL-Belotecan] ({Propanoyl(3-maleimido)-PEG6}-AANL-Belotecan) |  |  |  |  |  |  |  |  | 690.61 | 833.5 | 177.30 | 371.57 | 705.02 | 790.68 | 730.78 | 1295.67 | 839.26 | 1023.9 | 690.61 | 833.5 | SJSA-1 (sarcoma tissue) growth rate (%) [1, 10]: 1202.68%; SJSA-1 (sarcoma tissue) mean tumor volume (mm^3) [1, 10]: 1354.9 mm^3; colo320 (colorectal cancer cell) growth rate (%) [2, 12]: 969.27%; colo320 (colorectal cancer cell) mean tumor volume (mm^3) [2, 12]: 1179.5 mm^3 |
| CC[C@@]1(O)C(=O)OCc2c1cc1n(c2=O)Cc2c-1nc1ccccc1c2CCN(C)C(=O)[C@H](CC(C)C)NC(=O)[C@H](CC(N)=O)NC(=O)[C@H](C)NC(=O)[C@H](C)NC(=O)CCOCCOCCOCCOCCOCCOCCNC(=O)CCN1C(=O)C=CC1=O [MI-6PEG-AANL-D1] ({Propanoyl(3-maleimido)-PEG6}-AANL-X7) |  |  |  |  |  |  |  |  | 810.91 | 953.2 |  |  |  |  |  |  | 1203.44 | 1504.3 | 810.91 | 953.2 |  |
| CC[C@@]1(O)C(=O)OCc2c1cc1n(c2=O)Cc2c-1nc1ccccc1c2CCN(C(=O)[C@H](CC(C)C)NC(=O)[C@H](CC(N)=O)NC(=O)[C@H](C)NC(=O)[C@H](C)NC(=O)CCOCCOCCOCCOCCOCCOCCNC(=O)CCN1C(=O)C=CC1=O)C1CCCC1 [MI-6PEG-AANL-D8] ({Propanoyl(3-maleimido)-PEG6}-AANL-X8) |  |  |  |  |  |  |  |  |  |  |  |  |  |  |  |  | 975.05 | 1235.3 | 681.33 | 800.9 | colo320 (colorectal cancer cell) growth rate (%) [2, 12]: 950.50%; colo320 (colorectal cancer cell) mean tumor volume (mm^3) [2, 12]: 1117.3 mm^3 |
| CC[C@@]1(O)C(=O)OCc2c1cc1n(c2=O)Cc2c-1nc1ccccc1c2CCN(C(=O)CNC(=O)[C@H](Cc1ccccc1)NC(=O)CNC(=O)CNC(=O)CCOCCOCCOCCOCCOCCOCCNC(=O)CCN1C(=O)C=CC1=O)C1CC1 [MI-6PEG-GGFG-D6] ({Propanoyl(3-maleimido)-PEG6}-GGFG-X3) | 946.5 | 815.95 | 615.2 | 530.34 | 817.37 | 973.1 | 426.25 | 472.1 |  |  |  |  |  |  |  |  |  |  |  |  |  |
| CC[C@@]1(O)C(=O)OCc2c1cc1n(c2=O)Cc2c-1nc1ccccc1c2CCN(C(=O)CNC(=O)[C@H](Cc1ccccc1)NC(=O)CNC(=O)CNC(=O)CCOCCOCCOCCOCCOCCOCCNC(=O)CCN1C(=O)C=CC1=O)C1CCC1 [MI-6PEG-GGFG-D7] ({Propanoyl(3-maleimido)-PEG6}-GGFG-X1) | 1110.3 | 956.90 | 999.6 | 861.72 | 958.59 | 1061.7 | 487.11 | 539.5 |  |  |  |  |  |  |  |  |  |  |  |  |  |
| CC[C@@]1(O)C(=O)OCc2c1cc1n(c2=O)Cc2c-1nc1ccccc1c2CCN(C(=O)CNC(=O)[C@H](Cc1ccccc1)NC(=O)CNC(=O)CNC(=O)CCOCCOCCOCCOCCOCCOCCNC(=O)CCN1C(=O)C=CC1=O)C1CCCC1 [MI-6PEG-GGFG-D8] ({Propanoyl(3-maleimido)-PEG6}-GGFG-X8) | 1387.1 | 1195.78 |  |  |  |  | 586.88 | 650 |  |  |  |  |  |  |  |  |  |  |  |  |  |
